# Data reported in the supplement of paper PMC8728848.
# The list shows a part of the results.
# B1: rMpL (Macrolepiota procera) (protein)
# chain: MSTQVSSGRTYKITNVIAGTVIDLSGEDNKSIIGYPYHSGKNQQWTFNWTGKAWTLRSASSGSYLGIEGTPAGGTRLVAVNDPFEWHIWRDEANENAFRIFVPFTNYNLDLSGYGDTTPGTPVQLWWTWEGLHQTWTIDRP
# Experiments:
# Assay in all cases: glycan array binding signal (z-score within array); higher = stronger binding
# Details in all cases: glycan notation: IUPAC condensed, linker removed
# Fuc(a1-2)Gal = target: Fuc(a1-2)Gal
# How it was run: (§1)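 Glycan array data were curated from 3228 arrays in the Consortium for Functional Glycomics database and kept only where the protein sequence was available. Glycan names were converted to IUPAC-condensed notation, and columns mapping to the same glycan were averaged. The binding signal is a within-array Z-score, averaged across arrays of the same protein sequence at different concentrations or buffers and across linkers. Negative Z-scores can be read as non-binding.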
# Fuc(a1-2)Gal(b1-3)GalNAc = target: Fuc(a1-2)Gal(b1-3)GalNAc
# How it was run: as §1
# [1] = target: Fuc(a1-2)Gal(b1-3)GalNAc(a1-3)[Fuc(a1-2)]Gal(b1-4)Glc
# How it was run: as §1
# [2] = target: Fuc(a1-2)Gal(b1-3)GalNAc(a1-3)[Fuc(a1-2)]Gal(b1-4)GlcNAc
# How it was run: as §1
# [3] = target: Fuc(a1-2)Gal(b1-3)GalNAc(b1-3)Gal
# How it was run: as §1
# [4] = target: Fuc(a1-2)Gal(b1-3)GalNAc(b1-3)Gal(a1-4)Gal(b1-4)Glc
# How it was run: as §1
# [5] = target: Fuc(a1-2)Gal(b1-3)GalNAc(b1-4)[Neu5Ac(a2-3)]Gal(b1-4)Glc
# How it was run: as §1
# Fuc(a1-2)Gal(b1-3)GlcNAc = target: Fuc(a1-2)Gal(b1-3)GlcNAc
# How it was run: as §1
# [6] = target: Fuc(a1-2)Gal(b1-3)GlcNAc(b1-2)Man(a1-3)[Fuc(a1-2)Gal(b1-3)GlcNAc(b1-2)Man(a1-6)]Man(b1-4)GlcNAc(b1-4)GlcNAc
# How it was run: as §1
# [7] = target: Fuc(a1-2)Gal(b1-3)GlcNAc(b1-2)Man(a1-3)[Fuc(a1-2)Gal(b1-3)GlcNAc(b1-2)Man(a1-6)]Man(b1-4)GlcNAc(b1-4)[Fuc(a1-6)]GlcNAc
# How it was run: as §1
# [8] = target: Fuc(a1-2)Gal(b1-3)GlcNAc(b1-3)Gal(b1-4)Glc
# How it was run: as §1
# [9] = target: Fuc(a1-2)Gal(b1-3)GlcNAc(b1-3)GalNAc
# How it was run: as §1
# [10] = target: Fuc(a1-2)Gal(b1-3)GlcNAc(b1-3)[Fuc(a1-2)Gal(b1-3)GlcNAc(b1-6)]GalNAc
# How it was run: as §1
# [11] = target: Fuc(a1-2)Gal(b1-3)GlcNAc(b1-3)[Gal(b1-4)GlcNAc(b1-6)]Gal(b1-4)Glc
# How it was run: as §1
# [12] = target: Fuc(a1-2)Gal(b1-3)GlcNAc(b1-3)[Neu5Ac(a2-6)Gal(b1-4)GlcNAc(b1-6)]Gal(b1-4)Glc
# How it was run: as §1
# [13] = target: Fuc(a1-2)Gal(b1-3)GlcNAc6S
# How it was run: as §1
# [14] = target: Fuc(a1-2)Gal(b1-3)[Fuc(a1-4)]GlcNAc
# How it was run: as §1
# [15] = target: Fuc(a1-2)Gal(b1-3)[Fuc(a1-4)]GlcNAc(b1-2)Man(a1-3)[Fuc(a1-2)Gal(b1-3)[Fuc(a1-4)]GlcNAc(b1-2)Man(a1-3)]Man(b1-4)GlcNAc(b1-4)GlcNAc
# How it was run: as §1
# [16] = target: Fuc(a1-2)Gal(b1-3)[Fuc(a1-4)]GlcNAc(b1-2)Man(a1-3)[Fuc(a1-2)Gal(b1-3)[Fuc(a1-4)]GlcNAc(b1-2)Man(a1-6)]Man(b1-4)GlcNAc(b1-4)[Fuc(a1-6)]GlcNAc(b1-4)[Fuc(a1-6)]GlcNAc
# How it was run: as §1
# [17] = target: Fuc(a1-2)Gal(b1-3)[Fuc(a1-4)]GlcNAc(b1-3)[Fuc(a1-3)[Gal(b1-4)]GlcNAc(b1-6)]Gal(b1-4)Glc
# How it was run: as §1
# [18] = target: Fuc(a1-2)Gal(b1-3)[Fuc(a1-4)]GlcNAc(b1-3)[Gal(b1-4)GlcNAc(b1-6)]Gal(b1-4)Glc
# How it was run: as §1
# [19] = target: Fuc(a1-2)Gal(b1-4)Fuc(a1-3)]GlcNAc(b1-2)Man(a1-3)[Fuc(a1-2)Gal(b1-4)[Fuc(a1-3)]GlcNAc(b1-2)Man(a1-6)]Man(b1-4)GlcNAc(b1-4)GlcNAc
# How it was run: as §1
# Fuc(a1-2)Gal(b1-4)Glc = target: Fuc(a1-2)Gal(b1-4)Glc
# How it was run: as §1
# Fuc(a1-2)Gal(b1-4)Glc6S = target: Fuc(a1-2)Gal(b1-4)Glc6S
# How it was run: as §1
# Fuc(a1-2)Gal(b1-4)GlcNAc = target: Fuc(a1-2)Gal(b1-4)GlcNAc
# How it was run: as §1
# [20] = target: Fuc(a1-2)Gal(b1-4)GlcNAc(b1-2)Man
# How it was run: as §1
# [21] = target: Fuc(a1-2)Gal(b1-4)GlcNAc(b1-2)Man(a1-3)[Fuc(a1-2)Gal(b1-4)GlcNAc(b1-2)Man(a1-6)]Man(b1-4)GlcNAc(b1-4)GlcNAc
# How it was run: as §1
# [22] = target: Fuc(a1-2)Gal(b1-4)GlcNAc(b1-2)Man(a1-3)[Fuc(a1-2)Gal(b1-4)GlcNAc(b1-2)Man(a1-6)]Man(b1-4)GlcNAc(b1-4)[Fuc(a1-6)]GlcNAc
# How it was run: as §1
# [23] = target: Fuc(a1-2)Gal(b1-4)GlcNAc(b1-2)[Fuc(a1-2)Gal(b1-4)GlcNAc(b1-4)]Man(a1-3)[Fuc(a1-2)Gal(b1-4)GlcNAc(b1-2)Man(a1-6)]Man(b1-4)GlcNAc(b1-4)GlcNAc
# How it was run: as §1
# [24] = target: Fuc(a1-2)Gal(b1-4)GlcNAc(b1-3)Gal(b1-4)GlcNAc
# How it was run: as §1
# [25] = target: Fuc(a1-2)Gal(b1-4)GlcNAc(b1-3)Gal(b1-4)GlcNAc(b1-2)Man(a1-3)[Fuc(a1-2)Gal(b1-4)GlcNAc(b1-3)Gal(b1-4)GlcNAc(b1-2)Man(a1-6)]Man(b1-4)GlcNAc(b1-4)GlcNAc
# How it was run: as §1
# [26] = target: Fuc(a1-2)Gal(b1-4)GlcNAc(b1-3)Gal(b1-4)GlcNAc(b1-3)Gal(b1-4)GlcNAc
# How it was run: as §1
# [27] = target: Fuc(a1-2)Gal(b1-4)GlcNAc(b1-3)GalNAc
# How it was run: as §1
# [28] = target: Fuc(a1-2)Gal(b1-4)GlcNAc(b1-3)[Fuc(a1-2)Gal(b1-4)GlcNAc(b1-6)]GalNAc
# How it was run: as §1
# [29] = target: Fuc(a1-2)Gal(b1-4)GlcNAc(b1-3)[Fuc(a1-3)[Gal(b1-4)]GlcNAc(b1-6)]Gal(b1-4)Glc
# How it was run: as §1
# [30] = target: Fuc(a1-2)Gal(b1-4)GlcNAc(b1-6)GalNAc
# How it was run: as §1
# [31] = target: Fuc(a1-2)Gal(b1-4)GlcNAc6S
# How it was run: as §1
# [32] = target: Fuc(a1-2)Gal(b1-4)[Fuc(a1-3)]GlcNAc
# How it was run: as §1
# [33] = target: Fuc(a1-2)Gal(b1-4)[Fuc(a1-3)]GlcNAc(b1-2)Man(a1-3)[Fuc(a1-2)Gal(b1-4)[Fuc(a1-3)]GlcNAc(b1-2)Man(a1-6)]Man(b1-4)GlcNAc(b1-4)[Fuc(a1-6)]GlcNAc
# How it was run: as §1
# [34] = target: Fuc(a1-2)Gal(b1-4)[Fuc(a1-3)]GlcNAc(b1-2)[Fuc(a1-2)Gal(b1-4)[Fuc(a1-3)]GlcNAc(b1-4)]Man(a1-3)[Fuc(a1-2)Gal(b1-4)[Fuc(a1-3)]GlcNAc(b1-2)Man(a1-6)]Man(b1-4)GlcNAc(b1-4)GlcNAc
# How it was run: as §1
# [35] = target: Fuc(a1-2)Gal(b1-4)[Fuc(a1-3)]GlcNAc(b1-3)Gal(b1-4)[Fuc(a1-3)]GlcNAc
# How it was run: as §1
# [36] = target: Fuc(a1-2)Gal(b1-4)[Fuc(a1-3)]GlcNAc(b1-3)Gal(b1-4)[Fuc(a1-3)]GlcNAc(b1-3)Gal(b1-4)[Fuc(a1-3)]GlcNAc
# How it was run: as §1
# [37] = target: Fuc(a1-2)Gal(b1-4)[Fuc(a1-3)]GlcNAc(b1-3)GalNAc
# How it was run: as §1
# [38] = target: Fuc(a1-2)Gal(b1-4)[Fuc(a1-3)]GlcNAc(b1-3)[Neu5Ac(a2-6)Gal(b1-4)GlcNAc(b1-6)]Gal(b1-4)Glc
# How it was run: as §1
# [39] = target: Fuc(a1-2)Gal3S(b1-4)GlcNAc
# How it was run: as §1
binder,measurement,setting,value
B1,glycan array binding signal (z-score),Fuc(a1-2)Gal,-0.334
same,glycan array binding signal (z-score),Fuc(a1-2)Gal(b1-3)GalNAc,-0.342
same,glycan array binding signal (z-score),[1],-0.218
same,glycan array binding signal (z-score),[2],-0.34
same,glycan array binding signal (z-score),[3],-0.272
same,glycan array binding signal (z-score),[4],-0.32
same,glycan array binding signal (z-score),[5],-0.322
same,glycan array binding signal (z-score),Fuc(a1-2)Gal(b1-3)GlcNAc,-0.346
same,glycan array binding signal (z-score),[6],-0.176
same,glycan array binding signal (z-score),[7],0.011
same,glycan array binding signal (z-score),[8],-0.275
same,glycan array binding signal (z-score),[9],-0.299
same,glycan array binding signal (z-score),[10],-0.078
same,glycan array binding signal (z-score),[11],0.062
same,glycan array binding signal (z-score),[12],-0.219
same,glycan array binding signal (z-score),[13],-0.26
same,glycan array binding signal (z-score),[14],-0.346
same,glycan array binding signal (z-score),[15],0.35
same,glycan array binding signal (z-score),[16],-0.251
same,glycan array binding signal (z-score),[17],0.051
same,glycan array binding signal (z-score),[18],0.034
same,glycan array binding signal (z-score),[19],-0.148
same,glycan array binding signal (z-score),Fuc(a1-2)Gal(b1-4)Glc,-0.325
same,glycan array binding signal (z-score),Fuc(a1-2)Gal(b1-4)Glc6S,-0.287
same,glycan array binding signal (z-score),Fuc(a1-2)Gal(b1-4)GlcNAc,-0.313
same,glycan array binding signal (z-score),[20],-0.272
same,glycan array binding signal (z-score),[21],-0.164
same,glycan array binding signal (z-score),[22],-0.049
same,glycan array binding signal (z-score),[23],-0.037
same,glycan array binding signal (z-score),[24],-0.356
same,glycan array binding signal (z-score),[25],-0.171
same,glycan array binding signal (z-score),[26],-0.248
same,glycan array binding signal (z-score),[27],-0.301
same,glycan array binding signal (z-score),[28],-0.248
same,glycan array binding signal (z-score),[29],0.082
same,glycan array binding signal (z-score),[30],-0.235
same,glycan array binding signal (z-score),[31],-0.304
same,glycan array binding signal (z-score),[32],-0.314
same,glycan array binding signal (z-score),[33],-0.149
same,glycan array binding signal (z-score),[34],-0.102
same,glycan array binding signal (z-score),[35],-0.35
same,glycan array binding signal (z-score),[36],-0.297
same,glycan array binding signal (z-score),[37],0.026
same,glycan array binding signal (z-score),[38],-0.26
same,glycan array binding signal (z-score),[39],-0.327
